Measured values from PMC4336329 (PLoS ONE, 2015).
Among all 310,000 compounds or so, about 14,000 (4.5%) showed an effect of 50% or more. Effects have a minus sign here. Some of the results follow.

These compounds were tested against human ether-à-go-go-related gene (hERG) potassium channel (human, UniProt Q12809) (assay: primary screen, population patch clamp on CHO cells stably expressing hERG).
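Further: peak tail current of the secondary pulse compared with the same well before compound.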

human ether-à-go-go-related gene (hERG) potassium channel, sequence (Q12809 whole entry, looked up): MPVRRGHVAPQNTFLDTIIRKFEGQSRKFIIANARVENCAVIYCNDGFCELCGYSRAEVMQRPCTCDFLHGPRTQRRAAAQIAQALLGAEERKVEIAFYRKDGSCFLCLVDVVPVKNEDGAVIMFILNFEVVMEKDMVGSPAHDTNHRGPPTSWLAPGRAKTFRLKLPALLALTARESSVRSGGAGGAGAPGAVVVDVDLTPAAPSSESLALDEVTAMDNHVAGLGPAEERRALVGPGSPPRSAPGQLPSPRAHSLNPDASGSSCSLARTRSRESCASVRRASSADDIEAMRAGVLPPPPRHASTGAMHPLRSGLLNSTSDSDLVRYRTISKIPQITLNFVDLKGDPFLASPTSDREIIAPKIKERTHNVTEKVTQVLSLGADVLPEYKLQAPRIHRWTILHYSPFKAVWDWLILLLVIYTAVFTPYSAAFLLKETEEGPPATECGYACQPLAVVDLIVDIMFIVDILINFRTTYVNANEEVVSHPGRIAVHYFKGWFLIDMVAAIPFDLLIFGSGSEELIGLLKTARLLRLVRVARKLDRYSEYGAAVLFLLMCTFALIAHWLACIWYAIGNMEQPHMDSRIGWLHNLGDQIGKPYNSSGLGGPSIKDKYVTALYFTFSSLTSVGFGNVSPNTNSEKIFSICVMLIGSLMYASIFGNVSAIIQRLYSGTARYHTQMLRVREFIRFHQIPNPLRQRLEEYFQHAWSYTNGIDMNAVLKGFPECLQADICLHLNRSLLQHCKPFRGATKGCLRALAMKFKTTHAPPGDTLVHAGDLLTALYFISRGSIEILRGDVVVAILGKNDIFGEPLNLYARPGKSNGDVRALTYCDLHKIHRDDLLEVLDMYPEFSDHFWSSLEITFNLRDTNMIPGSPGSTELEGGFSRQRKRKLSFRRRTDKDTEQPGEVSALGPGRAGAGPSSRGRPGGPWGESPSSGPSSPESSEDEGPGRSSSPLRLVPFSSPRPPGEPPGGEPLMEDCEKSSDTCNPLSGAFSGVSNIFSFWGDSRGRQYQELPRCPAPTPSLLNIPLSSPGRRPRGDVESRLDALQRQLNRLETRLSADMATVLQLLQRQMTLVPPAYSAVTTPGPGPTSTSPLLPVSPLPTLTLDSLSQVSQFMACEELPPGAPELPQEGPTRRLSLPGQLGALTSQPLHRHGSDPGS

| SMILES | hERG current change (%, negative = inhibition) at 10uM [%] |
| --- | --- |
| O=C(/C=C/c1ccccc1)NC(=S)Nc1ccc(N2CCOCC2)cc1 | 13.7 |
| Cc1cc(C)nc(N2CCC(C(=O)NCc3ccco3)CC2)n1 | -1.73 |
| CC(=O)c1cccc(NC(=S)NC2CC2)c1 | 6.97 |
| COc1cccc(OCCn2c(C)c(/C=N/n3cnnc3)c3ccccc32)c1 | -7.66 |
| O=C(Nc1ccccc1)c1ccc(NCc2ccco2)c(S(=O)(=O)N2CCOCC2)c1 | -14.1 |
| CCOC(=O)C1=C(C)NC2=C(C(=O)c3ccccc32)C1c1cccc2ccccc12 (stereo not drawn) | 18.1 |
| Cc1oc2c(cc(NS(=O)(=O)c3ccc(C(C)C)cc3)c3ccccc32)c1C(=O)O | 5.76 |
| Cc1ccc(C)c(S(=O)(=O)N2CCCCC2CCNC(=O)C(=O)NCc2ccccn2)c1 (stereo not drawn) | -19.8 |
| CSc1ncc(C(=O)Nc2ccc(Cl)cc2)c(C)n1 | 4.13 |
| Cc1ccccc1NC(=O)CN1C(=O)N/C(=C\c2ccccc2OCc2ccc(C(=O)O)cc2)C1=O | 23.2 |
| CCOc1ncccc1C(=O)Nc1nnc(C)s1 | 28.2 |
| CCOC(=O)c1c(-c2ccccc2)csc1NC(=O)c1ccc(S(=O)(=O)N2CCOCC2)cc1 | 9.29 |
| Cc1cc(S(=O)(=O)N2CCCCC2CCNC(=O)C(=O)NC2CC2)ccc1F (stereo not drawn) | -32.6 |
| O=Cc1cc(Br)c(OC(=O)N2CCOCC2)c(Br)c1 | -17.9 |
| COc1cc2c(cc1OC)CN(C(=O)c1oc3ccccc3c1C)CC2 | -20.8 |
| CCOC(=O)N1CCN(C(=O)CSC2=NS(=O)(=O)c3ccccc3N2)CC1 | -8.55 |
| O=C(Cc1cccc(NC(=O)C2CCN(C(=O)C3CC3)CC2)c1)Nc1cccc(C(=O)N2CCCC2)c1 | -1.92 |
| C/C(=N\NC(=O)c1nnn(-c2nonc2N)c1-c1cccs1)c1cccnc1 | 20.1 |
| COc1ccc(NC(=O)Cn2nnc3sc4c(c3c2=O)CC(C)(C)OC4)cc1 | 1.18 |
| COc1ccc(S(=O)(=O)Nc2ccccc2OC)cc1NC(=O)CC1CC2CCC1C2 (stereo not drawn) | -15.4 |
| Cc1cc(C)n2nc(SC(C)C(=O)NCc3ccco3)nc2n1 (stereo not drawn) | 1.81 |
| CCOC(=O)c1nc2c(=O)n(C)c(=O)n(C)c2n(C)c1=O | 15 |

| SMILES | hERG current change (%, negative = inhibition) at 10uM [%] |
| --- | --- |
| Cl.N=c1sccn1CC(=O)Nc1ccccc1Sc1ccccc1 | -31.1 |
| COc1ccc(Cl)cc1NC(=S)NN1CCOCC1 | 33.6 |
| CCN(CC)S(=O)(=O)c1ccc(NC(=O)COC(=O)CCc2cc(OC)c(OC)c(OC)c2)cc1 | -0.631 |
| C=CCN1C(=O)/C(=C/c2ccc(O)cc2)S/C1=N/c1nccs1 | -12.6 |
| Brc1ccc(N/N=C(/N=Nc2nn[nH]n2)c2ccccc2)cc1 | 37.8 |
| OCCN=C1CCCc2c1[nH]c1ccc(Cl)cc21 | -18 |
| Cc1ncc(N=Nc2ccccc2)c(-c2ccccc2)n1 | 2.63 |
| CCN(CC)CCn1c2c(c(SCC(=O)Nc3ccc(C)c(F)c3)nc1=O)CCCC2 | -70.1 |
| COc1ccc(-c2cc(NCCc3ccncc3)n3ncnc3n2)cc1 | -55.8 |
| Cc1ccc(CC(CC(=O)O)C(=O)NCc2ccccc2)cc1 (stereo not drawn) | 23.3 |
| Cc1ccc(S(=O)(=O)N2CCOCC2)cc1NC(=O)CN1CCC(Cc2ccccc2)CC1.O=C(O)C(=O)O | -12.8 |
| CC(C)NC(=O)C1CCN(C2CCN(C(=O)Cc3ccc4c(c3)OCO4)CC2)CC1 | -3.18 |
| CCOC(=O)Cc1csc(NC(=O)c2ccc(Br)o2)n1 | 0.115 |
| CCOC(=O)c1cc(CN2CCOCC2)oc1-c1ccccc1 | -20.3 |
| O=C(NCc1ccco1)C1CC(O)CN1C(=O)Nc1ccccc1 (stereo not drawn) | 29.8 |
| COc1ccc(NC(=O)Cn2nnc(C(=O)NCc3ccc(C)cc3)c2N)cc1OC | 17.3 |
| Cc1ccc(OCCC(=O)OCC(=O)NCCc2ccccc2)cc1 | 51.4 |
| Cc1ccc(OCc2nnc(SC(C)C(=O)O)n2-c2ccccc2)cc1 (stereo not drawn) | 24.7 |
| Cc1cc(Oc2ccc(Cl)cc2)nc(-c2ccccc2O)n1 | 8.28 |
| O=C(O)C1Nc2ccc(OC(F)(F)F)cc2C2C=CCC12 (stereo not drawn) | 13.5 |
| COc1ccc(C(=O)NCC(C)(C)CNC(=O)c2ccc(OC)c(OC)c2)cc1OC | -9.01 |
| COc1ccc(S(=O)(=O)N(C)CC(=O)NC2CCCCC2)cc1Cl | -8.01 |

| SMILES | hERG current change (%, negative = inhibition) at 10uM [%] |
| --- | --- |
| COc1cccc2c1OCC(C(=O)NCc1ccc(Cl)cc1Cl)=C2 | 7.52 |
| NNc1nc2c(Cl)c(Cl)ccc2s1 | 19.6 |
| Cc1nc2ccc(NC(=O)c3ccc(S(=O)(=O)N(C)c4ccccc4)cc3)cc2s1 | -3.21 |
| COc1ccccc1CNC(=O)C1CCCN(S(=O)(=O)c2ccc3c(c2)CC(C)N3C(C)=O)C1 (stereo not drawn) | -24.5 |
| N#Cc1c(N)n(-c2ccc(N)cc2)c2nc3ccccc3nc12 | 12.1 |
| Cc1ccc(C(=O)NCCc2ccccc2)cc1 | -1.2 |
| COc1ccc(C)cc1NC(=O)C1CCN(C(=O)C2CC(=O)N(c3ccc(C)cc3)C2)CC1 (stereo not drawn) | -23.1 |
| O=C1NN(c2ccc(F)cc2)C(=O)/C1=C\C=C\c1ccco1 | 11 |
| COc1ccc(C2=CC(=O)C[C@H](c3ccc(OC)c(OC)c3)C2)cn1 | -7.46 |
| CCn1c(SCC(=O)c2ccc(Br)cc2)nnc1C(C)NC(=O)Cc1ccc(OC)cc1 (stereo not drawn) | -15.6 |
| O=C(NCc1cccs1)N[C@@H](Cc1ccccc1)C(=O)O | -1.53 |
| NC(=O)c1oc2ccccc2c1NC(=O)c1ccc(F)cc1 | 10.9 |
| O=C(O)c1ccccc1S(=O)CCO (stereo not drawn) | 7.26 |
| Cc1nc(-c2cccc(N)c2)cs1 | 5.26 |
| O=C(Nc1ccccn1)c1cccc(S(=O)(=O)N2CCCCC2)c1 | -26.9 |
| CCCN(CC(=O)Nc1ccccc1C)C(=O)c1ccc(-c2ccc([N+](=O)[O-])cc2)o1 | -35.7 |
| CCc1ccnc(NC(=O)NS(=O)(=O)c2ccc(C)cc2)c1 | 15.9 |
| O=C(COC(=O)CCC(NC(=O)OCc1ccccc1)C(=O)OCC(=O)Nc1ccccc1)Nc1ccccc1 (stereo not drawn) | -17.4 |
| O=C(Cc1ccc(F)cc1)NCCS(=O)(=O)N1CCN(c2ccccc2)CC1 | 5.42 |
| CCC(C)CCN1CCN=C1N(C)C (stereo not drawn) | 15.8 |
| CC(=O)Nc1ccc(-c2cn3c(n2)SCC3)cc1 | 25.8 |
| COc1cc(/C=N/NC(=O)c2cccnc2)cc(Br)c1O | 3.44 |

| SMILES | hERG current change (%, negative = inhibition) at 10uM [%] |
| --- | --- |
| BrC(=C\c1ccccc1)/C=N/Nc1nc2ccccc2[nH]1 | 8.75 |
| CCCCCC(=O)NNC1=NCC(Cc2cccc(Cl)c2)S1 (stereo not drawn) | -1.5 |
| O=C(CN1CCN(Cc2ccc3c(c2)OCO3)CC1)Nc1ccc(N2CCOCC2)cc1 | -6.54 |
| CC(=O)C1=C(C)NC(=S)NC1c1cccc([N+](=O)[O-])c1 (stereo not drawn) | -1.53 |
| CCN(CC(=O)Nc1c(F)cccc1F)C(=O)CSc1nc(C)cc(C)n1 | 17.2 |
| COc1ccc(NC2c3ccccc3C(=O)N2Cc2ccc3c(c2)OCO3)cc1 (stereo not drawn) | -17.7 |
| O=c1c2c(nc3nc(NCc4cccc5ccccc45)[nH]n13)CCC2 | 46.7 |
| CC(=O)N1CCOc2cc(S(=O)(=O)NCc3ccc(F)cc3)c(C)cc21 | -16.6 |
| COC(=O)c1c(NC(=O)/C=C/C(=O)O)sc(C)c1-c1ccc(C)c(C)c1 | -16.4 |
| O=S(=O)(c1cc(Cl)cc(Cl)c1)N1CCCC1c1nc2ccccc2s1 (stereo not drawn) | 8.03 |
| O=C(Cn1ncc2ccccc21)N1CCN(c2cccc(C(F)(F)F)c2)CC1 | -6.25 |
| CN(C)CCNC(=O)c1cccc(S(=O)(=O)Nc2ccc(F)cc2)c1.Cl | 15 |
| Cc1ccc2occ(CN3CCN(Cc4ccccc4)CC3)c(=O)c2c1 | -45.9 |
| O=C(O)c1ccc(CSc2nnnn2C2CCCCC2)cc1 | -10.1 |
| CC(NC(=O)c1ccc(NC2=NC3CS(=O)(=O)CC3S2)cc1)c1ccccc1 (stereo not drawn) | 12.9 |
| O=C(O)c1nn(CCOc2ccc(Br)cc2)c(=O)c2ccccc12 | -5.9 |
| CN1C(=O)[C@H]2[C@@H](/C=C/c3ccccc3)N3C(=O)CN(Cc4ccc(-c5ccccc5)cc4)C(=O)[C@@]3(Cc3ccccc3)[C@H]2C1=O | -19.6 |
| O=C(Nc1ccc(Cl)cc1)N1CCN(c2ncccn2)CC1 | -13.2 |
| COc1cc(/C=N/NC(=O)c2cnccn2)cc(OC)c1OC | 0.907 |
| Cc1ccc(NC(=O)C2=CC(c3cccs3)=NS(=O)(=O)N2C)cc1 | 3.24 |
| O=C1C2C3C=CC(C3)C2C(=O)N1c1nccs1 (stereo not drawn) | 39.3 |
